Three substances from paper PMC3926831 can be followed below.

Protein sequences, listed by entry. Tags and fused reporters are not part of them. Lines headed by an entry give the natural chain unless they say otherwise; changes in a name come on top. Chains listed by the source or under a name are the forms on record and can include a tag or linker.
UniProt P49674: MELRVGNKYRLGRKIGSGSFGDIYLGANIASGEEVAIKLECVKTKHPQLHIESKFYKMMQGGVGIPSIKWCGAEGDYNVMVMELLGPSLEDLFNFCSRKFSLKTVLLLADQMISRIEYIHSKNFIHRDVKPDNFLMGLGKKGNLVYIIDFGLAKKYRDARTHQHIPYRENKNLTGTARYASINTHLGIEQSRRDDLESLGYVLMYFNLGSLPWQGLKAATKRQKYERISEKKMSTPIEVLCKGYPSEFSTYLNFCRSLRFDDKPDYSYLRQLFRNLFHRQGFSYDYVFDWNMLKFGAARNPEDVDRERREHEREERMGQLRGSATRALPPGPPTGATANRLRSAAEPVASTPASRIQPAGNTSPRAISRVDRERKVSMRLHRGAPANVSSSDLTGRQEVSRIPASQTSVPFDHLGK
UniProt P63208: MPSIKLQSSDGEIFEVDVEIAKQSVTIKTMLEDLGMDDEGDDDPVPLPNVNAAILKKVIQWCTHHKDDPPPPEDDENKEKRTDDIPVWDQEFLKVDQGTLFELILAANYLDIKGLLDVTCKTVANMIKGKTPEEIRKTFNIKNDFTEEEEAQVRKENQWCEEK
β-TRCP1, endogenous (Q9Y297-2, form named): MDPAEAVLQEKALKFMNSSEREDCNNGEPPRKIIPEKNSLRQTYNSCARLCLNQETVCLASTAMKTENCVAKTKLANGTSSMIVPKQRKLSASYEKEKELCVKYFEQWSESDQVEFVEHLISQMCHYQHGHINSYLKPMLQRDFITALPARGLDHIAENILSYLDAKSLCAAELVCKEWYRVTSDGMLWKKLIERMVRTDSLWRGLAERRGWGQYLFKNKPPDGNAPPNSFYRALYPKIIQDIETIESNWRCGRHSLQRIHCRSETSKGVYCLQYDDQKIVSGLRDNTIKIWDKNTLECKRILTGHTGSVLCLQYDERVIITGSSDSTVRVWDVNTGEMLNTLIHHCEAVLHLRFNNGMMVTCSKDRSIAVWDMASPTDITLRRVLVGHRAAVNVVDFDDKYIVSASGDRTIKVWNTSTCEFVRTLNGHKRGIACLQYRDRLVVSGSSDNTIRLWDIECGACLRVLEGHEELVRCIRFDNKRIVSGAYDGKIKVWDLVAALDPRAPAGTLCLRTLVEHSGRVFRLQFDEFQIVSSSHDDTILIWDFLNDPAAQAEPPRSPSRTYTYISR

The target of assay [1] is T1, GST-MTSS1 (UniProt O43312).
T1 sequence: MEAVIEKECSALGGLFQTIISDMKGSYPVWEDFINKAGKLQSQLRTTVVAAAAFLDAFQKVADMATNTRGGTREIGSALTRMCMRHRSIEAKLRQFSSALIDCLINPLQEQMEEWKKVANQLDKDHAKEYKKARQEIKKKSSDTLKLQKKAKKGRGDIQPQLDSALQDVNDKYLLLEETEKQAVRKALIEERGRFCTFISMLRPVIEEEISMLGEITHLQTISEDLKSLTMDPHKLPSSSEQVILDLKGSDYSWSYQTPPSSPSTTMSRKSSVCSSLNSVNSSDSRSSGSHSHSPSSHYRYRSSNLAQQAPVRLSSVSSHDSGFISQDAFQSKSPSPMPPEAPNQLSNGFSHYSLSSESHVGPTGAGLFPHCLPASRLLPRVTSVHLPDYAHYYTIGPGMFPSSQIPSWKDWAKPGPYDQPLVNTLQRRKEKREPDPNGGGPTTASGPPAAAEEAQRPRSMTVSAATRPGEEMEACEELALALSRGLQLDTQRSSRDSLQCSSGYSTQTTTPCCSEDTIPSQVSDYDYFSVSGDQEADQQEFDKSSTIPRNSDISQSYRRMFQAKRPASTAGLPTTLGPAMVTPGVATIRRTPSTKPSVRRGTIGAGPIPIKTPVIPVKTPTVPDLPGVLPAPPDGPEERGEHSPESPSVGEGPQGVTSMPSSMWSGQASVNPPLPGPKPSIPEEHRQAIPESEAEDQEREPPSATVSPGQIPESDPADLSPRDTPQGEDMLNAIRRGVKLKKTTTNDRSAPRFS
Kind of assay: co-IP; 293T cells co-transfected with both tagged partners; 10 μM MG132 overnight before harvest; EBC lysis buffer; five washes with NETN buffer; for Myc-MTSS1 with Flag-β-TRCP1 lysates were also pre-treated with λ-phosphatase before the IP.

Assay [2] has as its target T2, Metastasis suppressor 1 (MTSS1), endogenous (human (endogenous in 293T)) (UniProt O43312).
T2 sequence: T1 sequence
Kind of assay: co-IP; 293T cell extracts immunoprecipitated with antibody against MTSS1 or control IgG; both partners endogenous; immunoblot. (In general: Immunoblotting shows a protein as a band on a membrane.)

Results are given in words; binding and its absence hold for the method and conditions named. Binding seen in cells or lysates may run through a third protein. Some entries that bind do so weakly or less than the wild type. For part of these data: Tags and fused reporters may be left off the sequences shown.

For the substance “Myc-CKIε (from UniProt P49674 1-416) (enzyme)”, the binding entry in assay [1] is listed as “no binding”.

Turning to Myc-Skp1 (from UniProt P63208 1-163), in assay [1], the binding result was “binds”.

Regarding “β-TRCP1, endogenous (from UniProt Q9Y297-2 1-569)”, the binding result in assay [2] was “binds”.
